Measurements: the supplement of paper PMC8728848
The list shows a part of the results.

How the values were obtained:
Assay in all cases: glycan array binding signal (z-score within array); higher = stronger binding
Settings in all cases: glycan notation: IUPAC condensed, linker removed
[1] = molecular target: Glc(a1-6)Glc(a1-6)Glc(a1-6)Glc(a1-6)Glc(a1-6)Glc(a1-6)Glc(a1-6)Glc(a1-6)Glc(a1-6)Glc(a1-6)Glc
Procedure, shortened: (§1)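 The Consortium for Functional Glycomics database supplied 3228 glycan arrays, of which those lacking an available protein sequence were dropped. The binding signal, a within-array Z-score, was averaged across arrays of the same protein sequence and across linkers. Negative scores can be read as non-binding.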

[2] = molecular target: Glc(a1-6)Glc(a1-6)Glc(a1-6)Glc(a1-6)Glc(a1-6)Glc(a1-6)Glc(a1-6)Glc(a1-6)Glc(a1-6)Glc(a1-6)Glc(a1-6)Glc
Procedure, shortened: as §1

[3] = molecular target: Glc(a1-6)Glc(a1-6)Glc(a1-6)Glc(a1-6)Glc(a1-6)Glc(a1-6)Glc(a1-6)Glc(a1-6)Glc(a1-6)Glc(a1-6)Glc(a1-6)Glc(a1-6)Glc
Procedure, shortened: as §1

Glc(b1-2)Glc = molecular target: Glc(b1-2)Glc
Procedure, shortened: as §1

Glc(b1-2)Glc(b1-2)Glc = molecular target: Glc(b1-2)Glc(b1-2)Glc
Procedure, shortened: as §1

[4] = molecular target: Glc(b1-2)Glc(b1-2)Glc(b1-2)Glc
Procedure, shortened: as §1

[5] = molecular target: Glc(b1-2)Glc(b1-2)Glc(b1-2)Glc(b1-2)Glc
Procedure, shortened: as §1

[6] = molecular target: Glc(b1-2)Glc(b1-2)Glc(b1-2)Glc(b1-2)Glc(b1-2)Glc
Procedure, shortened: as §1

[7] = molecular target: Glc(b1-2)Glc(b1-2)Glc(b1-2)Glc(b1-2)Glc(b1-2)Glc(b1-2)Glc
Procedure, shortened: as §1

[8] = molecular target: Glc(b1-2)Glc(b1-2)Glc(b1-2)Glc(b1-2)Glc(b1-2)Glc(b1-2)Glc(b1-2)Glc
Procedure, shortened: as §1

[9] = molecular target: Glc(b1-2)Glc(b1-2)Glc(b1-2)Glc(b1-2)Glc(b1-2)Glc(b1-2)Glc(b1-2)Glc(b1-2)Glc
Procedure, shortened: as §1

[10] = molecular target: Glc(b1-2)Glc(b1-2)Glc(b1-2)Glc(b1-2)Glc(b1-2)Glc(b1-2)Glc(b1-2)Glc(b1-2)Glc(b1-2)Glc
Procedure, shortened: as §1

[11] = molecular target: Glc(b1-2)Glc(b1-2)Glc(b1-2)Glc(b1-2)Glc(b1-2)Glc(b1-2)Glc(b1-2)Glc(b1-2)Glc(b1-2)Glc(b1-2)Glc
Procedure, shortened: as §1

[12] = molecular target: Glc(b1-2)Glc(b1-2)Glc(b1-2)Glc(b1-2)Glc(b1-2)Glc(b1-2)Glc(b1-2)Glc(b1-2)Glc(b1-2)Glc(b1-2)Glc(b1-2)Glc
Procedure, shortened: as §1

[13] = molecular target: Glc(b1-2)Glc(b1-2)Glc(b1-2)Glc(b1-2)Glc(b1-2)Glc(b1-2)Glc(b1-2)Glc(b1-2)Glc(b1-2)Glc(b1-2)Glc(b1-2)Glc(b1-2)Glc
Procedure, shortened: as §1

Glc(b1-3)Glc = molecular target: Glc(b1-3)Glc
Procedure, shortened: as §1

Glc(b1-3)Glc(b1-3)Glc = molecular target: Glc(b1-3)Glc(b1-3)Glc
Procedure, shortened: as §1

[14] = molecular target: Glc(b1-3)Glc(b1-3)Glc(b1-3)Glc
Procedure, shortened: as §1

[15] = molecular target: Glc(b1-3)Glc(b1-3)Glc(b1-3)Glc(b1-3)Glc
Procedure, shortened: as §1

[16] = molecular target: Glc(b1-3)Glc(b1-3)Glc(b1-3)Glc(b1-3)Glc(b1-3)Glc
Procedure, shortened: as §1

[17] = molecular target: Glc(b1-3)Glc(b1-3)Glc(b1-3)Glc(b1-3)Glc(b1-3)Glc(b1-3)Glc
Procedure, shortened: as §1

[18] = molecular target: Glc(b1-3)Glc(b1-3)Glc(b1-3)Glc(b1-3)Glc(b1-3)Glc(b1-3)Glc(b1-3)Glc
Procedure, shortened: as §1

[19] = molecular target: Glc(b1-3)Glc(b1-3)Glc(b1-3)Glc(b1-3)Glc(b1-3)Glc(b1-3)Glc(b1-3)Glc(b1-3)Glc
Procedure, shortened: as §1

[20] = molecular target: Glc(b1-3)Glc(b1-3)Glc(b1-3)Glc(b1-3)Glc(b1-3)Glc(b1-3)Glc(b1-3)Glc(b1-3)Glc(b1-3)Glc
Procedure, shortened: as §1

[21] = molecular target: Glc(b1-3)Glc(b1-3)Glc(b1-3)Glc(b1-3)Glc(b1-3)Glc(b1-3)Glc(b1-3)Glc(b1-3)Glc(b1-3)Glc(b1-3)Glc
Procedure, shortened: as §1

[22] = molecular target: Glc(b1-3)Glc(b1-3)Glc(b1-3)Glc(b1-3)Glc(b1-3)Glc(b1-3)Glc(b1-3)Glc(b1-3)Glc(b1-3)Glc(b1-3)Glc(b1-3)Glc
Procedure, shortened: as §1

[23] = molecular target: Glc(b1-3)Glc(b1-3)Glc(b1-3)Glc(b1-3)Glc(b1-3)Glc(b1-3)Glc(b1-3)Glc(b1-3)Glc(b1-3)Glc(b1-3)Glc(b1-3)Glc(b1-3)Glc
Procedure, shortened: as §1

[24] = molecular target: Glc(b1-3)Glc(b1-3)Glc(b1-3)Glc(b1-3)Glc(b1-3)Glc(b1-3)Glc(b1-3)[Glc(b1-6)]Glc(b1-3)Glc
Procedure, shortened: as §1

[25] = molecular target: Glc(b1-3)Glc(b1-3)Glc(b1-3)Glc(b1-3)Glc(b1-3)Glc(b1-3)[Glc(b1-6)]Glc(b1-3)Glc(b1-3)Glc
Procedure, shortened: as §1

[26] = molecular target: Glc(b1-3)Glc(b1-3)Glc(b1-3)Glc(b1-3)[Glc(b1-6)]Glc(b1-3)Glc(b1-3)Glc(b1-3)Glc(b1-3)Glc
Procedure, shortened: as §1

[27] = molecular target: Glc(b1-3)Glc(b1-3)Glc(b1-3)[Glc(b1-6)]Glc(b1-3)Glc(b1-3)Glc(b1-3)Glc(b1-3)[Glc(b1-6)]Glc(b1-3)Glc
Procedure, shortened: as §1

[28] = molecular target: Glc(b1-3)Glc(b1-3)[Glc(b1-6)]Glc(b1-3)Glc(b1-3)Glc(b1-3)Glc(b1-3)Glc(b1-3)Glc(b1-3)Glc
Procedure, shortened: as §1

Glc(b1-3)Glc(b1-4)Glc = molecular target: Glc(b1-3)Glc(b1-4)Glc
Procedure, shortened: as §1

[29] = molecular target: Glc(b1-3)Glc(b1-4)Glc(b1-4)Glc
Procedure, shortened: as §1

[30] = molecular target: Glc(b1-3)Glc(b1-4)Glc(b1-6)Glc(b1-4)Glc
Procedure, shortened: as §1

[31] = molecular target: Glc(b1-3)[Glc(b1-6)]Glc(a1-3)Glc(b1-3)[Glc(b1-6)]Glc
Procedure, shortened: as §1

[32] = molecular target: Glc(b1-3)[Glc(b1-6)]Glc(b1-3)Glc(b1-3)Glc(b1-3)Glc(b1-3)Glc(b1-3)Glc(b1-3)Glc
Procedure, shortened: as §1

Glc(b1-4)Glc = molecular target: Glc(b1-4)Glc
Procedure, shortened: as §1

Glc(b1-4)Glc(b1-3)Glc = molecular target: Glc(b1-4)Glc(b1-3)Glc
Procedure, shortened: as §1

[33] = molecular target: Glc(b1-4)Glc(b1-3)Glc(b1-4)Glc
Procedure, shortened: as §1

Glc(b1-4)Glc(b1-4)Glc = molecular target: Glc(b1-4)Glc(b1-4)Glc
Procedure, shortened: as §1

[34] = molecular target: Glc(b1-4)Glc(b1-4)Glc(b1-3)Glc
Procedure, shortened: as §1

[35] = molecular target: Glc(b1-4)Glc(b1-4)Glc(b1-3)Glc(b1-4)Glc(b1-4)Glc(b1-3)Glc
Procedure, shortened: as §1

[36] = molecular target: Glc(b1-4)Glc(b1-4)Glc(b1-4)Glc
Procedure, shortened: as §1

[37] = molecular target: Glc(b1-4)Glc(b1-4)Glc(b1-4)Glc(b1-3)Glc
Procedure, shortened: as §1

Measured: glycan array binding signal (z-score)

B1: Dectin-1 (Homo sapiens), Q9BXN2 (protein)
chain: TMAIWRSNSGSNTLENGYFLSRNKENHSQPTQSSLEDSVTPTKAVKTTGVLSSPCPPNWIIYEKSCYLFSMSLNSWDGSKRQCWQLGSNLLKIDSSNELGFIVKQVSSQPDNSFWIGLSRPQTEVPWLWEDGSTFSSNLFQIRTTATQENPSPNCVWIHVSVIYDQLCSVPSYSICEKKFSM
-0.088: Glc(b1-4)Glc
0.976: [21]
-0.08: [36]
9.53: [23]
-0.145: [1] | [2] | [3] | Glc(b1-2)Glc | Glc(b1-2)Glc(b1-2)Glc | [4] | [5] | [6] | [7] | [8] | [9] | [10] | [11] | [12] | [13] | Glc(b1-3)Glc | Glc(b1-3)Glc(b1-3)Glc | [14] | [15] | [16] | [17] | [18] | [19] | [20] | [24] | [25] | [26] | [27] | [28] | Glc(b1-3)Glc(b1-4)Glc | [29] | [30] | [31] | [32] | Glc(b1-4)Glc(b1-3)Glc | [33] | Glc(b1-4)Glc(b1-4)Glc | [34] | [35] | [37]
5: [22]
